Measured values reported in the supplement of paper PMC11417369.
This is one part of the list.

System: PfAP2-HC AP2 domain (GST-tagged)
Experiment: gcPBM binding intensity (ln(normalized median fluorescence intensity)); higher = stronger DNA binding
Summary of the method: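 GST-tagged P. falciparum DNA-binding domains, expressed in E. coli (about 25 μg on average), were applied for 1 h to an Agilent 4 × 180k array of primer-extended double-stranded 36-bp intergenic genomic probes plus negative controls. The binding buffer was 1× PBS with 1% milk, 0.2 mg/ml BSA, 0.5% salmon testes DNA and 0.03% Triton X-100. Bound protein was detected with Alexa488 anti-GST antibody and scanned at 488 nm. Binding intensity is the highest Masliner-normalised natural-log median intensity across replicate spots of either probe orientation.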

Sequence | gcPBM binding intensity (ln)
TATGTGCACCCATATACACACACAAATACAATGATA [CACACA_site8295] | 10.1
AATTCATATACAAAAAGTACAAACGAAAAATAAAAA [XGTACX_site2900] | 9.81
ATGTTTTATATTATTAATATATATATATATATATAT [CACACA_negctrl_site331] | 9.81
GTTATATAAAAATATTGTACATTCTATATAAAGTCA [XGTACX_site4418] | 9.47
AAAAAAAAAAAAAAATGTACATATAAATAAATATAT [XGTACX_site7248] | 9.62
TAATATCCATATAAAACACACATCAAGGTTGTTAAC [CACACA_site175] | 9.81
ACAACATAGAGGGGCACACACATATATACATAAAAA [CACACA_site6954] | 10.4
AAAAAAAAAAAAAACACACAAACGCTTTTTTTTTTT [CACACA_site686] | 9.71
TATGAAAATGTTCATACACACATAAAAAAAAAAAAA [CACACA_site3236] | 9.72
TACACATACACATACACACGCATAGAAACATACGAA [CACACA_site2137] | 10
TGTTTGAATAACAAAAAAAAAAAAAAAATTAAAAAA [CACACA_negctrl_site1332] | 9.32
ATTTTAAATGTTATGCGTACATATTAATCCTACTTA [XGTACX_site1344] | 9.7
TTTTAAAAATCTATATGTACACAATACGTCTATAAA [XGTACX_site5787] | 9.54
TTTTAAATATGCAGATGTACATTATAATGTTTTATT [XGTACX_site2079] | 9.7
TACATATTTTTATATACACACAATAATTATTATAAA [CACACA_site1659] | 9.6
GATATGTACTAATACACACACATATAGATTTATATA [CACACA_site6610] | 10
TATATTTATTATAACACACACATATATATATTATAT [CACACA_site1061] | 10
AAAATAAAAAATATAACACACAATAAATATATATAT [CACACA_site1926] | 10.2
ATTTCCTGGCTACTGTGTACTGACCTCCAGACTGCT [XGTACX_site2005] | 9.78
TTTTAACTTTTATATTGTACGTTGTTTATTTTATTT [XGTACX_site7504] | 9.94
GAAAAAAAAAAAAAAAAAAAAAAATTCATTTTTTTT [XGTACX_negctrl_site54] | 9.12
ATAATCATTTGGATATTCACAATATTTAAAATTAAA [CACACA_negctrl_site909] | 9.28
TATACAAAATAACTAGCACACATATGTATAAACATA [CACACA_site9236] | 10.1

Sequence | gcPBM binding intensity (ln)
ATAAATAAAATTAGGTGTACTTTAATTAAAGAAAAT [XGTACX_site3319] | 9.73
TATACATATATAATATGTACATATATTTTTTTTTAA [XGTACX_site2938] | 9.53
CATAAAAATATTTTCTGTACATATTCATATGACGTT [XGTACX_site3406] | 9.78
ATAAATATTGGGTGCACACACATAATATATATATAT [CACACA_site2272] | 10.2
AGGTTCCCAAAATGCACACCAATGAAATTATTTATT [CACACA_site553] | 9.57
ATATGTAATAATAAATGTACGAAACATTGAACGATG [XGTACX_site1266] | 9.93
TTTTTATATATCACGTGTACATATTTATTTTTACTC [XGTACX_site8049] | 10.1
GAATCATCCAAAATTGCATGCAAGGAAGAAGAAAAA [TGCATGCA_site764] | 9.71
CGTATGAAACATATATGTACTTATAAAAATATAACC [XGTACX_site7539] | 9.72
TTATAAATATAATATTGTACAAAATTTTAACATGTC [XGTACX_site5259] | 9.57
CTTATGTGTATAAGTAGTACTAAATTAAAATAATAT [XGTACX_site2681] | 9.6
AAATCACCTTAAGAACGTACAAACAGAAAAAAATTA [XGTACX_site4623] | 9.72
TTTATTATATTTATATGTACTTATATAATATATGCA [XGTACX_site1906] | 9.47
ATATGTATTAAGTGTACACATATAATGTATTTTGTT [CACACA_site4177] | 9.85
TCATAATGAAAACAAGCACACATACATAAAATAAAA [CACACA_site9069] | 10.4
TTATTTACCATCTCTACACACAAAAATTGATGTAGA [CACACA_site2811] | 9.78
TAAATTATATTATGCACACTTAAAAATATATTTAAC [CACACA_site3512] | 9.6
GTAAGAAAGAAAGGAAGTACGTAAGAAAGTAAGAAC [XGTACX_site1239] | 10.4
GTGTGGTTACAGACACGAACACATTTTTTAAATATT [CACACA_negctrl_site83] | 9.58
TATATATATTATATAGTGCATTGAAGAAGGGGATTT | 9.64
TTTTTTTTTCTGTGAGTGCATGTAATAAAATAAATT [GTGCAC_site9740] | 9.34
ATATATTTATAATACACATGCAATGATATAATATAT [TGCATGCA_site20] | 9.66
CATATATACATATATACACACATATATATATATATA [CACACA_site645] | 9.78

Sequence | gcPBM binding intensity (ln)
TATTCCTTATTATAATTCTTAAATAAAAAAAAAAAA [TGCATGCA_negctrl_site45] | 8.76
CCCATTATTGTTGGGGGTACAATTTTGAATATATAT [XGTACX_site2227] | 9.68
TAGGATTTTTAGTTTATTGTAACTATTATTTTATTT [CACACA_negctrl_site829] | 9.87
ATATATAAACTGAAGGGTACAATGAAAAAAGAACTT [XGTACX_site7219] | 9.77
CATATTTGTTGACACACACACATATTTATATAAATA [CACACA_site7648] | 10.3
TTTATATGTTTAAAATGTACATGTGGTAAAAATTTT [XGTACX_site5907] | 9.38
GGGAGGATATTACACAGTACCCAGAAAATCTACGGA [XGTACX_site2551] | 9.41
AAACATGTATTTTATTGTACACATTCATAAATCACA [XGTACX_site1420] | 9.66
TTATAATCTTATATATGTACATATATATATTATTAT [XGTACX_site7780] | 9.73
TACATGTATGTAATATGTTTTATTTTTTTCATCTCT [XGTACX_negctrl_site79] | 9.62
AAATATATGAATAAATGTACGAAATGAATGGATGAA [XGTACX_site7108] | 9.8
CATTCAAACAAAAAAAGTACTCATCACATAATATAT [XGTACX_site1251] | 9.68
GAAATGTACAAATACGTACACACATATATATATATA [CACACA_site1541] | 9.78
AAAAAAAAAAAAAAACTTACGATTTTAAAAAGATGG [GTGCAC_negctrl_site291] | 9.38
TTTATATTGTTTTATTGTACATATATATTTATACAT [XGTACX_site6821] | 9.98
GCAAAATATTTAAAATAATATATGTGTATATTTTTA [GTGCAC_negctrl_site149] | 9.49
TTAATTAGAAATCATACACACATATATATATATATA [CACACA_site173] | 9.78
TTATATTATATATATGTGCACATTTTTAAACTTGGA | 9.62
ACAAATAAAAATATTACACACACTATTATATTGATA [CACACA_site1494] | 10.3
GGAAGATGAAAAATAAAGCATGTGCTGTACAAACGA [CACACA_negctrl_site1625] | 9.75
AAATATTTATATGTTACACACTGTTGATAATTTTCT [CACACA_site1347] | 9.77
TTCAAATTGTTTATATGTACTTATAAAAATTGTCTG [XGTACX_site977] | 9.48
AGACCTTTAATTTGTGTGCACATAATTAGTGTACAT [GTGCAC_site9434] | 10.3

Sequence | gcPBM binding intensity (ln)
ATTAAAAAAAAAAAAAGTACTTATAATTATACTCGT [XGTACX_site4852] | 9.56
ATTTTTGTAATTATTTGTACACATTTATTTATGTGT [XGTACX_site1864] | 10.1
AAAAATATTTTGGTTTGTACATATATTTTTACAATA [XGTACX_site8691] | 9.6
ACTTATTTCGATATGTGTACTTAATATATATATTTA [XGTACX_site6616] | 9.82
TATTCTATATAATAATGTACGTGATTTAAATTTTCA [XGTACX_site6650] | 9.43
TGACCGTTTTAAGAGTGTACAAAAAAAAAAAAAAAA [XGTACX_site4141] | 8.97
AGAAGTTTAAAAAGCACACAAAAAAAAAAAAAAAGA [CACACA_site3309] | 9.73
AAATAAAATAAAAACATGCACACTTTATTTTTTTTA [CACACA_site2800] | 9.62
AAAATCGTGTTCTGAATACACACTAATACAAAGTTG [CACACA_site3985] | 9.64
ATTCATATATATTATACACACACATATATAAATATA [CACACA_site8228] | 10
AAAAATACCTGAATATGTACATATGATCAATGGGCC [XGTACX_site887] | 9.83
TAAAAATATAAATTTTGTACGTAAAAAATGGTTCTT [XGTACX_site1506] | 9.67
AATTATACTTCCTTCACACAGTTACATCATATATTA [CACACA_site5942] | 9.83
ATTCACATACATTACTTACACACCATATTAATATAT [CACACA_site459] | 10.1
TAAAAAATAAGATATACACACATATATATATATATA [CACACA_site2324] | 9.89
AAAAAAAAAAAAAAGGAACACACAAGTAACAATAAA [CACACA_site8792] | 9.9
TAACATATTAATAACATATTTATAATATATTAATAA [TGCATGCA_negctrl_site243] | 9.42
CCACATTAAAAAAAAACACACATATATTATAGATAT [CACACA_site6662] | 9.73
AATGTACGTTTTATAACACACACACTAATAAAAAAA [CACACA_site9286] | 10.1
ATCTTCAAAAATATTAGTACACATGTATCATGAATT [XGTACX_site3872] | 9.58
